Results on 56 molecules are retold here after ChEMBL document CHEMBL1157539, “Thousands of chemical starting points for antimalarial lead identification” (Nature, 2010).

Whole data set: some 13,000 compounds, median “IFI” near 4, cut for the highest 2% near 17. This is one part of the list.

A short description of the experiment: GSK_TCMDC: Inhibition Frequency Index (IFI). The number of non-kinase HTS assays where a compound showed > 50 % inhibition, expressed as a percentage of the number of such assays in which the compound was tested (-0 is zero). In kind it is functional.
On to `COc1ccc2ncc(Cl)c([C@H](O)CN3CCC(NCc4cc5c(cn4)OCCO5)CC3)c2c1`, for which the IFI turned out to be 1.77%. With `COc1cc2c(=O)c(Cc3ccc(Cl)cc3)c(C)[nH]c2cc1F`, the IFI is 1.52%. With `Cc1ccc(Nc2nc3cc(Nc4ccnc(Nc5cccc(CS(C)(=O)=O)c5)n4)ccc3o2)cc1` the figure was 10.9%.

`CC(C)NCc1ccc(-c2ccc(NC(=O)c3cccc(C#N)c3)cc2)cc1` had an IFI of 8.16%. With `Cc1ccc(Cn2ncc(NC3CCNCC3)c(Cl)c2=O)cc1NC(=O)Nc1ccc(-c2ccccc2)cc1` the figure was 6.16%; with `C[C@@H](CC1CCCCC1)OC(=O)N(C)[C@@H]1CCN(C#N)C1`, 2.94%. The molecule `Cc1cc(N[C@@H](Cc2ccccc2)C(=O)NCCc2ccccc2)nc(NCCc2cccs2)n1` gave an IFI of 14.6%. Next, `Oc1ccc2[nH]cc(C3CCN(CCCCCCCCCN4CCC(c5c[nH]c6ccc(O)cc56)CC4)CC3)c2c1`: 7.63%; `Cc1[nH]c(C)c(-c2cccc(-c3ccc(OC(F)(F)F)cc3)c2)c(=O)c1Br`: 11.4%; `FC(F)(F)c1ccc2[nH]c(-c3ccc(-c4cccc(CN5CCN(c6ccncc6)CC5)c4)cc3)nc2c1`: 13.1%. With `Nc1cccc(CNCc2cccc(-c3cccc(-c4nc5cc(C(F)(F)F)ccc5[nH]4)c3)c2)c1` the figure was 11.4%; with `CCOc1cccc(C2c3c(oc4ccccc4c3=O)C(=O)N2CCN(CC)CC)c1` (stereo unspecified), 0.85%; with `N#Cc1ccc(N/C(=N\c2ccc(-c3ccccc3)cc2)NCc2cccnc2)c(O)c1`, 2.24%. With `COc1cc(NC(=O)c2sc(-c3ccc(Cl)cc3)cc2NC(=O)c2cccnc2)ccc1OCCN1CCCC1` the figure was 7.19%.

As for `O=C(c1ccc(Cl)cc1)C1CCN(CCCOc2ccc3c(c2)CCNCC3)CC1`, the IFI came out at 7.25%.

In the case of `Cc1cc(N2CCCC2)nc(Nc2ccc(NC(=O)c3ccc4c(c3)OCO4)cc2)n1`, the IFI was 9.8%. In the case of `Cc1cc(=NN=Cc2ccccc2F)c2cc(C(F)(F)F)ccc2[nH]1`, the IFI was -0%. With `O=C1c2ccc([N+](=O)[O-])cc2C(=O)N1c1ccc2[nH]ncc2c1` the figure was 0.71%. On to `O=C(Nc1cccc(CN2CCCN(Cc3ccsc3)CC2)c1)c1ccc(Cl)c(Cl)c1`, for which the IFI amounted to 8.05%. Next, `N#Cc1ccc(-c2cnc3ccc(NCc4ccc(S(N)(=O)=O)cc4)nn23)cc1`: 3.82%. In the case of `CC(N)(Cc1ccc(O)cc1)c1nnn[nH]1` (stereo unspecified), the IFI was -0%. Next, `CCN(CC)CCN(Cc1ccc(-c2ccc(C(F)(F)F)cc2)cc1)C(=O)CN1C(CCc2cccc(F)c2F)=NS(=O)(=O)c2ccccc21`: 5.8%.

For the molecule `O=C(/C=C/c1ccc(Cl)cc1)NCCCCCN1CCC(c2c[nH]c3ccccc23)CC1`, the IFI came to 7.19%. Next, `O=C(NCC1CCC(C(=O)O)CC1)c1ccc(/C=C/C(=O)N2CCc3ccccc3C2c2ccc3c(c2)OCO3)cc1` (stereo unspecified): 1.55%; `CNC(=O)COC(=O)c1c2c(nc3ccccc13)C(=Cc1ccc3c(c1)OCO3)CCC2`: 9.72%. Molecule `NC(=O)c1cccc(C(=O)Nc2ccc(-c3cccc(-c4nc5cc(F)ccc5[nH]4)c3)cc2)c1` showed an IFI of 1.74%. With `CC(C)C[C@H](NC(=O)c1cc2ccccc2s1)C(=O)N[C@H]1CCN(Cc2ccc(I)c(OCCN3CCCC3)c2)C1` the figure was 13.3%. With `COc1ccc(CNC(=O)c2cnc3c(O)cccc3c2Nc2cccc(NC(=O)c3ccc(Cl)c([N+](=O)[O-])c3)c2)cc1` the figure was 6.25%. For the molecule `CC(C)(C)c1nn(-c2ccc(Cl)cc2)c2[nH]c(=O)c(CNCc3cccs3)cc12`, the IFI turned out to be 8.33%. With `COc1ccc(N2CCN(CCCCNC(=O)c3ccc(NC(=O)c4ccc(OC(F)(F)F)cc4)cc3)CC2)c(OC)c1` the figure was 6.14%.

`CCOc1ccc(S(=O)(=O)N(C)c2ccc(OCC(=O)Nc3nccs3)cc2)cc1` returned an IFI of 2.1%. With `COc1cc2c(C3CCN(CC4CCC(NC(=O)/C=C/c5ccc(Cl)c(Cl)c5)CC4)CC3)c[nH]c2cn1` (stereo unspecified) the figure was 1.54%. With `C[C@H](Nc1c(Nc2ccc3[nH]ccc3c2)c(=O)c1=O)C1CCCCC1` the figure was 5.22%; with `Cc1cccc2nc(-c3cccc(-c4ccc(NC(=O)Nc5ccc(Cl)cc5)cc4)c3)[nH]c12`, 5%. With `CN1CCCN(Cc2cccc(-c3cccc(NC(=O)c4cccc(Cl)c4)c3)c2)CC1` the figure was 3.85%. Molecule `CC(NC(=O)c1ccc(O)c(-c2ccc(Cl)c(Cl)c2)c1)C(=O)NC1CCCCC1` (stereo unspecified) displayed an IFI of 4.41%. Next, `Cc1nnc2c(NC(=O)NC3CCCC3)cc3cc(-c4ccc(CN(C)C)cc4)ccc3n12`: 10.8%. The molecule `CCCCCOc1ccc(C(O)C(CN2CCCCC2)c2ccccc2)cc1` (stereo unspecified) registered an IFI of 2.27%. Molecule `COc1ccc(Cc2nc(/N=C(\N)Nc3ccccc3)ccc2OC)cc1` came in with an IFI of 22.6%.

In turn, `c1ccc(Oc2ccc(Nc3ccnc4cc(-c5csc(CN6CCCCC6)n5)ccc34)cc2)nc1` showed an IFI of 6.72%. Take `O=C(Nc1ccc2oc(-c3ccc(Cl)cc3Cl)nc2c1)c1ccc([N+](=O)[O-])o1`: the IFI worked out at 2.05%. Next, `Nc1nc(N)c2cc(C(F)(F)F)ccc2n1`: 1.65%; `COc1ccc(CCNCc2cc3c(C(C)(C)C)nn(-c4ccc(Cl)cc4)c3[nH]c2=O)cc1OC`: 10.3%. Next, `c1ccc2c(NCCc3c[nH]cn3)c3ccccc3nc2c1`: 7.62%; `Cc1cccc(C(=O)Nc2ccnc(N(C)CCCN(C)Cc3cccc(O)c3)c2)c1`: 5.41%; `Cc1noc(C)c1-c1cccc(CNCc2ccc(-c3cccc(-c4nc5cc(F)ccc5[nH]4)c3)cc2)c1`: 1.94%. With `CN(C)CCOc1ccc(-c2cc(-c3ccc(Cl)c(O)c3)c(-c3ccncc3)[nH]2)cc1` the figure was 4.03%; with `CC(=O)Nc1ccc(OCCCCN(Cc2ccccc2OC(F)(F)F)c2ccc(C(F)(F)F)c(C#N)c2)c(Cl)c1`, 0%. On to `COc1ccc(CNCc2ccc(F)cc2)cc1-c1ccc(S(=O)(=O)NCCN2CCCC2)c(C)c1`, for which the IFI is 14.7%. Next, `CCOC(=O)C(NC(=O)Cc1ccccc1)C(C)C` (stereo unspecified): 1.52%.

For the molecule `O=C(NCCc1cccc(Cl)c1Cl)c1cnc(N2CCN(c3ccncc3)CC2)c(Cl)c1`, the IFI came to 20%. Next, `COc1ccc(Oc2ccc(-c3c(C)[nH]c(C)c(Cl)c3=O)cc2)cc1`: 2.7%; `COc1cc2nc(NCCc3ccccc3)nc(NCc3cnn(C)c3C)c2cc1OC`: 3.08%; `O=C(/C=C/c1ccc(Cl)c(Cl)c1)NCCCCCN1CCC(NC(=O)Nc2ccc(Cl)cc2Cl)CC1`: 9.33%.

For `COc1cccc(C(=O)C2CC2CN(C)CC(O)c2cc(C)c(OC)cc2C)c1` (stereo unspecified), the IFI came to 0.88%. In the case of `CC(=O)NCCNc1nccc(N2CCc3ncnc(Nc4ccc(OCc5ccccn5)c(Cl)c4)c3C2)n1`, the IFI is 2.21%.
